The values that follow come from PubChem BioAssay AID1240 (Sanford-Burnham Center for Chemical Genomics, 2008).

In all, about 50,000 compounds went through this assay and about 800 (1.6%) showed an effect of 50% or more. The list shows a part of the results.

For the assay, the target named is Bcl-2-like protein 10 (Homo sapiens) (UniProt Q9HD36). Put plainly: TR3 peptide-Bcl-B binding displacers, biochemical primary FP assay, phenotype converters (AID 1240).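 Further: 0% = Bcl-B with tracer peptide and DMSO and 100% = tracer peptide lacking Bcl-B.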 As to conditions: GST-Bcl-B / FITC-TR3 peptide fluorescence polarization; stronger effect = higher value; compound at 3.75 mg/L. (In general: In fluorescence polarisation assays a small probe gives low polarisation when free and higher when bound to something large.)
Chain of UniProt Q9HD36 (Q9HD36 whole entry, looked up): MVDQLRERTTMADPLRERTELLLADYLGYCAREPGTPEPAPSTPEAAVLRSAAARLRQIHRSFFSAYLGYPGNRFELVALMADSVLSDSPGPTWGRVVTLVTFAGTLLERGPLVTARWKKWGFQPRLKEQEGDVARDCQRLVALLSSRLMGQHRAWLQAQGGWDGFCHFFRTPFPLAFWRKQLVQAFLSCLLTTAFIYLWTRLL
Turning to `COc1ccccc1NC(=O)c1ccccc1NC(=O)c1ccccc1Cl`, the displacement is 8.2%. Consider `CN(C)CCSc1nc(O)c(-c2ccccc2)c(=O)n1-c1ccccc1`, for which the displacement was -4.1%.

As to `Cc1cccc(OCC(=O)Nc2cccc(Br)c2)c1C`, the displacement is -8.7%. The figure for `Cc1ccc(-c2nc(N)sc2-c2ccc([N+](=O)[O-])cc2)cc1` is 1%; for `Cc1ccc(/C=C2\SC(N3CCCC3)=NC2=O)cc1` it is -1.5%. With `COc1ccc(CC(=O)Nc2sc3c(c2C(=O)Nc2ccccc2OC)CCCCC3)cc1` the figure was 1.4%; with `CC(C)=CC(=O)CC(C)(O)c1ccccc1` (centres undefined), 7.1%. With `CCc1ccc(C(=O)O/N=C(\N)c2ccccn2)cc1` the figure was 12.2%. Consider `CCCCOC(C)n1cc(C)c(=O)[nH]c1=O` (centres undefined), for which the displacement was determined as 9.5%. With `NS(=O)(=O)c1ccc(CCNC(=S)Nc2ccccc2)cc1` the figure was -3.3%; with `OC(COCCC12CC3CC(CC(C3)C1)C2)CN1CCSCC1` (centres undefined), -8.1%; with `O=C(CCc1ccccc1)Nc1ccc(Oc2ccccc2)cc1`, -3.4%. With `C=CCn1c(-c2ccccc2)c(NC(=O)c2ccco2)sc1=Nc1ccc(Br)cc1` the figure was 9.2%; with `O=C1N/C(=N/S(=O)(=O)c2ccccc2)S/C1=C/c1ccc(O)cc1`, -17.8%. The figure for `Cc1ccc(-c2nc3ccccc3o2)cc1NC(=O)c1cccc(Br)c1` is 30%; for `CC(=O)Nc1ccc(S(=O)(=O)Nc2cccc3c(NS(=O)(=O)c4ccc(NC(C)=O)cc4)cccc23)cc1` it is 1.8%. As for `CC1(C)Oc2ccc3ccc(=O)oc3c2/C(=C/N2CCCCC2)C1=O`, the displacement is -13.5%.

Turning to `C=C(C)C1CC=C(C)/C(=N/NC(=O)c2cccc(C)c2)C1` (centres undefined), the displacement came to 14.9%.

On to `Cc1ccccc1C(=O)Nc1ccc(N2CCOCC2)cc1`, for which the displacement was found to be 1.6%. The figure for `Cc1cc(C)nc(SCC(=O)Nc2cccc(C(F)(F)F)c2)n1` is -2.1%; for `O=C(Nc1cccnc1)c1ccccc1Oc1ccccc1` it is -6.7%; for `COC(=O)c1c(NC(=O)c2ccco2)sc2c1CCC2` it is 91.1%. With `O=C(CCN1CCCCC1)Nc1c(-c2ccccc2)c2cc(Br)ccc2[nH]c1=O` the figure was 2.3%; with `Cc1ccc(C2=C/C(=C\c3ccc(-c4ccccc4C(=O)O)o3)C(=O)O2)cc1`, 13.6%; with `COc1ccc(NC(=O)C2=C(C)NC(=O)NC2c2ccc(OC)cc2)cc1` (centres undefined), 1%. Turning to `O=C1C2C(c3ccccc3Cl)OC3(C(=O)c4ccccc4C3=O)C2C(=O)N1c1cccc(C(F)(F)F)c1` (centres undefined), the displacement was 7.7%. The figure for `Cc1cccc(N2CCN(C(=O)c3cccs3)CC2)c1C` is 0.3%. With `O=C1S/C(=C/c2ccccc2F)C(=O)N1CNc1ccccc1Br` the figure was 11.8%; with `CN(c1ccccc1)c1ccc(C=C2C(=O)NC(=O)NC2=O)cc1`, 19.6%.

For `C=CCN1C(=O)/C(=C\c2ccc(N(C)C)cc2)SC1=Nc1ccccc1`, the displacement amounted to 7.3%. With `COc1cc(/C=C2\SC(=S)N(CC(=O)O)C2=O)cc(OC)c1OC` the figure was -4%; with `O=C(Nc1ccc2c(c1)oc1ccccc12)c1cccc(C(F)(F)F)c1`, -6.8%. With `COc1ccc(Br)cc1CN1CCN(Cc2ccc(OC)c(OC)c2OC)CC1` the figure was -17.1%; with `O=C(NC(=S)Nc1ccc2oc(-c3ccc(Cl)cc3)nc2c1)c1ccco1`, 13%; with `CN1C(=O)/C(=C2\SC(=O)NC2=O)c2cc(Br)ccc21`, -3.8%. With `O=C(/C=C/c1ccc(-c2ccc(Cl)cc2Cl)o1)Nc1cccnc1` the figure was 0%; with `O=C(NN=C1CCN(Cc2ccccc2)CC1)c1sc2ccccc2c1Cl`, -3.4%; with `Cc1ccc(/C=C/C(=O)N2CCN(C/C=C/c3ccccc3)CC2)o1`, -3.7%. On to `O=C(CSc1nc2ccccc2[nH]1)Nc1nc2ccccc2s1`, for which the displacement is 6.1%.

Consider `CCn1cc(/C=C2/C(=O)NN(c3ccccc3)C2=O)c2ccccc21`, for which the displacement worked out at 13.1%. With `CCOc1ccccc1N(CC(=O)N1CCOCC1)S(=O)(=O)c1ccccc1` the figure was -10.5%.

For `COc1ccc(-c2cc(-c3ccccc3O)[nH]n2)cc1OC`, the displacement was found to be 11%. The figure for `COc1ccc(C2CC(=O)C3=C(C2)Nc2ccccc2NC3c2cc(OC)c(OC)cc2OC)cc1` (centres undefined) is 15.9%; for `CC(=O)Nc1ccc(OCC=C(Cl)Cl)cc1` it is 5.9%.

`COc1ccc(NC(=O)c2ccc3ccccc3n2)cc1`: the displacement was -14.2%. Regarding `O=C(/C=C/c1ccc2c(c1)OCO2)NCc1ccc2c(c1)OCO2`, the displacement worked out at 0.1%. With `CCOc1ccc(N=Cc2cccc(C)c2O)cc1` the figure was 9.6%; with `O=C(Nc1sc2c(c1C(=O)NCCc1ccccc1)CCCCC2)c1ccccc1F`, 12.4%; with `NC(=O)c1cc(NC(=O)c2cccc(F)c2)c(Cl)cc1Cl`, 9.6%.

Regarding `Cc1cccc(Cc2cnc(NC(=O)CCN3C(=O)/C(=C/c4ccccc4Cl)SC3=S)s2)c1`, the displacement is -7%. Consider `Cc1nc2nc[nH]n2c(=O)c1Cc1ccccc1`, for which the displacement is 5.2%. `N#Cc1cccc2c1-c1ccccc1/C2=N\NC(N)=O`: the displacement was determined as 1.4%. With `CC(=O)O/N=C1\Sc2ccccc2C1=O` the figure was 8.5%; with `Cc1c(NC(=S)NC(=O)c2ccco2)cccc1-c1nc2ncccc2o1`, 9.2%; with `CC1=C(C(=O)OCCOc2ccccc2)C(c2cccc([N+](=O)[O-])c2)C2=C(CCCC2=O)N1` (centres undefined), -3.9%. The figure for `CCC(C)(C)C1CCc2c(sc(N)c2C#N)C1` (centres undefined) is -18.4%; for `COc1cc(/C=C2\SC(c3ccc(C)cc3)=NC2=O)cc(OC)c1O` it is -38.9%. With `C/C(CCc1ccccc1)=N\NC(=O)CN(Cc1ccco1)S(=O)(=O)c1ccccc1` the figure was -1.3%. On to `CS(=O)(=O)N(CC(=O)NCCSc1ccccn1)c1cccc(Cl)c1`, for which the displacement was -5%. With `CCc1c(C)sc(NC(=O)c2ccccc2F)c1C#N` the figure was -0.2%; with `CCOc1cc(OCC)cc(C(=O)Nc2ccc(C(C)=O)cc2)c1`, 7.6%; with `Cn1c(=O)cc(-c2ccccc2)c2cc(Cl)ccc21`, 14.7%. The figure for `CCOC(=O)c1csc(NC(=O)c2ccc(C(=O)c3ccccc3)cc2)n1` is -24.4%; for `Cc1ccc(NC(=S)Nc2ccc(F)cc2)c(C)c1` it is 8.5%. With `CCOC(=O)C1=CN(c2ccc(OCC)cc2)C=C(C(=O)OCC)C1c1ccccc1OC` the figure was 6.5%. With `COC(=O)c1ccc(NC(=O)Cn2nc(C)c3ccccc3c2=O)cc1`, the displacement is -8.7%. The figure for `O=S(N1CCOCC1)C12CC3CC(CC(C3)C1)C2` (centres undefined) is -0.8%. With `COCCNC(=O)C(=O)Nc1ccccc1OC` the figure was 13.7%.

Take `O=C1/C(=C\c2ccc(-c3cccc([N+](=O)[O-])c3)o2)SC(=S)N1CCc1ccccc1`: the displacement came out at 114%. For `Cc1cc(OCC(=O)Nc2ccc(-c3nc4ccccc4o3)c(O)c2)ccc1Cl`, the displacement came to 14.8%. The figure for `O=C(Cn1c(O)c(N=NC(=O)C(=O)Nc2cccc([N+](=O)[O-])c2)c2ccccc21)Nc1ccccc1` is -11.8%; for `CCOc1ccc(/C=C2\C(=O)NC(=O)N(c3ccc(C)cc3)C2=O)cc1Cl` it is 3%.

As for `COc1cc(NC(=O)c2ccc(Cl)cc2)c(Cl)cc1N=NC1=C(O)CC(C)(C)CC1=O`, the displacement was -1%. With `Nc1nnc(CSCc2ccccc2)s1`, the displacement was found to be 1.8%.

Turning to `CCN(CC)CCCNC(=O)c1cc([N+](=O)[O-])ccc1Cl`, the displacement was -4.4%. Turning to `COc1ccc(/C=C2/N=C(c3ccc(Br)cc3)OC2=O)cc1`, the displacement worked out at 99.4%. With `CC(=O)Nc1cccc(N2CCCC2=O)c1` the figure was -4.2%; with `Cc1cccc(N(CC(O)CN(Cc2ccccc2)Cc2ccccc2)S(=O)(=O)c2ccccc2)c1` (centres undefined), 14.3%. Regarding `COc1ccc(/C=C2\NC(=O)c3ccccc3C2=O)cc1`, the displacement stood at 25.7%. The figure for `O=C(NN1C(=O)c2ccc(Oc3ccc([N+](=O)[O-])cc3)cc2C1=O)c1ccco1` is 12.4%; for `O=C1NC(=Nc2ccc(Cl)c(Cl)c2)S/C1=C/c1ccccc1O` it is 7.8%.

For the molecule `Cc1oc(C(N)=O)cc1COc1ccc(C(N)=O)cc1`, the displacement was -5.7%.

Turning to `O=C(COc1ccc(F)cc1)Nc1ccc2[nH]c(=O)[nH]c2c1`, the displacement is 7.6%. On to `O=C(NC(=S)Nc1ccc([N+](=O)[O-])cc1)c1ccc(Cl)cc1`, for which the displacement was -1.6%.

Take `Cc1ccc(OCC(=O)Nc2sc3c(c2C(N)=O)CCC3)c(C)c1`: the displacement was determined as 12.8%. The figure for `O=C(c1ccc([N+](=O)[O-])cc1)N1CCN(Cc2ccc(F)cc2)CC1` is -14.9%; for `N#CC1=C(N)Oc2c(sc3ccccc23)C1c1cccs1` (centres undefined) it is -32.2%. The figure for `CN1CCN(C(=O)c2cc3nc(-c4ccccc4)cc(C(F)(F)F)n3n2)CC1` is 0.7%; for `Nc1nnc(COc2ccccc2F)s1` it is 7.4%. With `O=C1c2ccc(Oc3ccc4c(c3)C(=O)N(c3ccc(S)cc3)C4=O)cc2C(=O)N1c1ccc(S)cc1` the figure was -19%; with `O=C(NNc1nc2ccccc2s1)c1ccc(Br)cc1`, -14.5%; with `CCCCNCCCCCCOc1ccccc1CC`, -6%. Turning to `CC(C)(C)c1ccc(C(=O)Nc2sc3c(c2C(N)=O)CCCCC3)cc1`, the displacement is -3.7%. With `COc1ccc(S(=O)(=O)N(Cc2ccccc2)c2ccccc2C(=O)N2CCOCC2)cc1` the figure was -1.1%. With `COc1ccc(NC(=O)CN(c2ccc(OC)cc2OC)S(=O)(=O)c2ccc(C)cc2)c(OC)c1` the figure was 1.7%; with `COc1ccc(Cc2cnc(NC(=O)c3cccc([N+](=O)[O-])c3)s2)cc1`, -6.9%; with `Cc1ccc(C(C)C)c(OCCNc2nc3c(c(=O)n(C)c(=O)n3C)n2C)c1`, 11.4%. With `CC(C)(C)NC(=O)CCN1C(=O)c2ccccc2C1=O` the figure was 0.8%; with `O=C(O)CSc1nnc(-c2ccc3c(c2)OCO3)n1-c1ccccc1`, 11.7%. As to `O=C(CCC1CCCC1)NCC1CCCO1` (centres undefined), the displacement is -8%.

Consider `COC(=O)C1=C(C)N(CC(C)C)C(=O)/C1=C\c1cc(OC)c(OC)c(OC)c1`, for which the displacement was -4.2%. With `Cc1ccc(S(N)(=O)=O)cc1NC(=O)c1ccc(Cl)cc1[N+](=O)[O-]` the figure was 3.4%; with `COc1cc(NC(=O)COc2ccc(Cl)cc2)ccc1NC(=O)c1ccco1`, 0%.

On to `COc1cccc(-n2c(C=C3C(=O)N(C)c4ccc(Br)cc43)nc3ccccc3c2=O)c1`, for which the displacement came to 1%. The figure for `O=C(O)c1ccc(S(=O)(=O)c2ccc3c(c2)C(=O)N(c2ccc(Sc4ccc([N+](=O)[O-])cc4)cc2)C3=O)cc1` is 9.6%; for `COc1c(Cl)cc(Cl)cc1/C=C(\C#N)c1nn(CCO)c(N)c1C#N` it is 7.3%.

Consider `O=C(Nc1nnc(SCc2ccccc2)s1)c1cccc2ccccc12`, for which the displacement was determined as 9.8%. With `COc1ccc(S(=O)(=O)N2CCN(C3CCCCCC3)CC2)cc1` the figure was -14.5%; with `Oc1ccc(Cl)cc1/C=N/c1c(-c2ccco2)nc2cc(Cl)ccn12`, 7.9%.
